Measured values as given in PubChem BioAssay AID588855 (National Center for Advancing Translational Sciences (NCATS), 2011).
Hit rate of the full screen: of about 410,000 compounds, about 5,000 (1.2%) were called active. Inconclusive results, whose numbers are uncertain, are shown with a selection of clear calls. Calls follow the shape of the dose curve; as a rule, active = well fitted inhibition curve with a large enough effect; inconclusive = small, poorly fitted or top-dose-only effect; inactive = no such curve, though single readings can be large or run the other way. Potencies beside an inconclusive call are fits to weak or partial responses and may not hold up.

Experiment: qHTS for Inhibitors of TGF-b; also: nearly all actives have a fitted effect of over 65% in size
Conditions: HepG2 CAGA-GFP TGF-b/SMAD3 reporter, GFP fluorescence, 18 h, TGF-beta stimulated, 500 pg/mL final; series mostly up to 46.1 µM
Summary of the method: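 First, reporter cells (HEPG2 CAGA-GFP) rested 2 h at 37 degrees C. Next, compounds were pinned in and TGF-beta added to 500 pg/mL final. After 18 h, GFP was imaged per cell and summed per well.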
Potency is read from the fitted curve at half-maximal effect; tags tell the direction and shape of the fitted curve.

SMILES	Potency
C[CH2][Hg][S]c1ccccc1C(=O)O	active: 4.47 µM
O=C(Cc1cccs1)N1Cc2ccccc2-n2nncc2C1	inactive
CCOC(=O)c1ccc(N2C(=O)c3n[nH]c(-c4cccs4)c3C2c2ccc(OC)cc2OC)cc1 (centres undefined)	active: 5.01 µM
O=c1oc2ccccc2c(O)c1[C@H]1c2ccc(O)cc2Oc2c1c(=O)oc1ccccc21	inconclusive: 12.6 µM [inhibitor, partial curve, poor fit]
COC(=O)C(O)(c1ccc(NC(=S)NC(=O)c2ccc(Cl)cc2Cl)cc1)C(F)(F)F (centres undefined)	inconclusive: 15.8 µM [inhibitor, single point]
Cc1ccc(/C=C2\C(=O)NC(=S)N(c3ccccc3F)C2=O)s1	inconclusive: 25.1 µM [inhibitor, single point]
Cc1nc2ccccc2c(=O)n1/N=C/c1cc(Br)cc(Br)c1O	inconclusive: 8.91 µM [inhibitor, partial curve, poor fit]
COc1ccc(NC(=O)Nc2cccc3c2O[C@H](CN(C)C(=O)NC2CCCCC2)[C@@H](C)CN([C@H](C)CO)C3=O)cc1	inconclusive: 17.8 µM [inhibitor, partial curve, poor fit]
O=[N+]([O-])c1cnc[nH]1	inactive
COc1cc2c(cc1/C=C/[N+](=O)[O-])OCO2	inconclusive: 22.4 µM [inhibitor, single point]
COc1cc(O)c2c(c1)/C=C/C[C@H](O)[C@H](O)C(=O)CCC[C@H](C)OC2=O	active: 2 µM
O=c1c2ccccc2nc(/C=C/c2ccc([N+](=O)[O-])o2)n1-c1ccc(O)cc1	active: 2.82 µM
O=P(OC1=CCCCC1)(c1ccccc1)c1ccccc1	inconclusive: 35.5 µM [inhibitor, single point]
CCCCOC(=O)C1=C(N)OC2=C(C(=O)CC(C)(C)C2)[C@]12C(=O)N(C)c1ccccc12	inconclusive: 2.82 µM [inhibitor, partial curve]
CCN(CC(=O)Nc1ccc(C#N)c(Cl)c1)CC(=O)NC(C)(C)C	inconclusive: 15.8 µM [inhibitor, partial curve, poor fit]
NCCc1ccc(OCc2ccccc2)c(OCc2ccccc2)c1	inconclusive: 35.5 µM [inhibitor, single point]
O=C(O)CCC(=O)NCCC1=c2ccccc2=N/C1=C\c1c(O)n(Cc2ccc(F)cc2)c(=S)[nH]c1=O	inconclusive: 35.5 µM [inhibitor, single point]
C[C@@H]1O[C@@H](O[C@H]2C[C@@H](O)[C@]3(CO)[C@@H]4C(CC[C@]3(O)C2)[C@@]2(O)CC[C@H](C3COC(=O)C3)[C@@]2(C)C[C@H]4O)[C@H](O)[C@H](O)[C@H]1O (some centres undefined)	inconclusive: 15.8 µM [inhibitor, single point]
CCC(c1nnnn1C1CCCC1)N1CCC2(CC1)C(=O)NCN2c1ccccc1 (centres undefined)	inactive
CNC(C)C#Cc1ccc2oc3cc(C)c(C)cc3c(=O)c2c1 (centres undefined)	inconclusive: 11.2 µM [inhibitor, partial curve, poor fit]
COc1cccc(C2CCN(CC(=O)Nc3cc(Cl)ccc3OC)CC2O)c1 (centres undefined)	inactive
COc1ccc(C(c2nnnn2-c2ccc(OC)cc2)N2CCC3(CC2)C(=O)NCN3c2ccccc2)cc1 (centres undefined)	inconclusive: 20 µM [inhibitor, partial curve]

SMILES	Potency
O=C(c1ccco1)c1cn(Cc2ccc(Cl)cc2)c2ccccc12	inconclusive: 35.5 µM [inhibitor, single point]
Cc1ccc(-n2nc3c(N4CCC(C(=O)NCCc5ccccc5)CC4)nnc(C)c3c2C)cc1	inconclusive: 0.355 µM [inhibitor, full curve]
COc1cccc(OP(=O)(Nc2ccccc2)Oc2cccc(OC)c2)c1	inconclusive: 14.1 µM [inhibitor, single point]
Cc1cc(/C=C/c2cccc3sc(C)[n+](CCCCI)c23)ccc1N(CCCl)CCCl	inconclusive: 35.5 µM [inhibitor, single point]
CCN1CCC(O)(c2ccccc2)C(C(=O)c2ccccc2)C1 (centres undefined)	inconclusive: 35.5 µM [inhibitor, single point]
CCC(C)N1CCN(C(=O)COc2ccc3ccccc3c2)CC1 (centres undefined)	inactive
C[C@]12CCC3C(CC[C@H]4[C@@H](O)[C@H](O)CC[C@]34C)C1CCC2=O (some centres undefined)	inactive
CCCOc1ccc(Cc2c(Cl)nc(SC)nc2OC)cc1	inconclusive: 35.5 µM [inhibitor, single point]
C[C@H](CO)N1C[C@H](C)[C@@H](CN(C)Cc2ccc(Cl)c(Cl)c2)Oc2c(NC(=O)c3ccncc3)cccc2C1=O	inconclusive: 35.5 µM [inhibitor, single point]
Cn1c(=O)oc2cc(S(=O)(=O)N3CCCC(C(=O)N4CCN(c5ccc(Cl)cc5)CC4)C3)ccc21 (centres undefined)	inconclusive: 1.41 µM [inhibitor, full curve]
CCOC(=O)c1ccccc1NC(=O)c1c(O)[nH]c(=S)[nH]c1=O	inconclusive: 1 µM [inhibitor, full curve, poor fit]
Oc1c(Br)c(Br)c(Br)c(Br)c1Br	inconclusive: 35.5 µM [inhibitor, partial curve, poor fit]
COC(=O)C1=C(c2ccc(F)cc2OCc2ccccc2)C[C@@H]2CC[C@H]1N2C(=O)N1CCC(C)CC1	inconclusive: 20 µM [inhibitor, single point]
COc1ccccc1N1CCN(C(=O)c2cc3c(-c4ccccc4F)nn(C)c3s2)CC1	inconclusive: 12.6 µM [inhibitor, partial curve, poor fit]
CCCCn1c(=O)c(C(=O)Nc2ccccc2N)c(O)c2ccccc21	inactive
CCOC(=O)[C@]12Cc3ccsc3[C@H]1N(Cc1ccccc1)C(=O)c1ccccc12	inconclusive: 35.5 µM [inhibitor, single point]
FC(F)(F)Oc1ccc(C2NCc3ccccc3-n3cccc32)cc1 (centres undefined)	inconclusive: 35.5 µM [inhibitor, single point]
OC(CNCc1ccccc1)c1ccc(Cl)cc1 (centres undefined)	inactive
C[C@H](CO)N1C[C@H](C)[C@@H](CN(C)C(=O)Oc2ccc3ccccc3c2)OCc2cnnn2CCCC1=O	inconclusive: 2.51 µM [inhibitor, full curve, poor fit]
O=C1C=C(NS(=O)(=O)c2ccccc2)C(=O)c2ccccc21	inconclusive: 5.62 µM [inhibitor, full curve, poor fit]
OC1(c2ccc(F)cc2)CC2CCC(C1)N2Cc1nnnn1C1CCCC1 (centres undefined)	inconclusive: 5.62 µM [inhibitor, single point]
O=c1[nH]c(=S)n(-c2ccccc2Cl)c(O)c1C=NCCN1CCNCC1	inactive

SMILES	Potency
COc1ccc(O)c2c(=O)c3c(OC)cc4c(c3oc12)C1C=COC1O4 (centres undefined)	inconclusive: 0.1 µM [inhibitor, full curve, poor fit]
CC(O)C1C=CC=CC(=O)OC2CC3OC4C5OC5(C)C(O)CC4(COC(=O)C(O)C(C)CCO1)C2(C)C31CO1 (centres undefined)	active: 0.447 µM
CNP1(NC)=NC(C(F)(F)F)=NC(C(F)(F)F)=N1	inactive
CCCCCc1nc2c(c(=O)c3ccccc3n2C)c(=O)n1C1CCCCCC1	inconclusive: 17.8 µM [inhibitor, single point]
COc1ccc2cc1Oc1ccc(cc1)C[C@H]1c3cc(c(OC)cc3CCN1C)Oc1c(O)c(OC)cc3c1[C@H](C2)N(C)CC3	active: 7.94 µM
Cc1cc(C=C2C(=O)NC(=O)NC2=O)c(C)n1-c1ccc2c(c1)OCO2	inactive
O=c1c2ccccc2nc(-c2ccccc2Cl)n1-c1ccc(O)cc1	inconclusive: 35.5 µM [inhibitor, single point]
CCOC(=O)C1(c2ccccc2)CCN(CC(=O)Nc2cccc3ccccc23)CC1	inconclusive: 22.4 µM [inhibitor, single point]
Nc1cc(Cl)c2nonc2c1[N+](=O)[O-]	inconclusive: 2.24 µM [inhibitor, partial curve, poor fit]
CCN(CC)CCN=Cc1c(O)n(CCc2ccccc2)c(=O)[nH]c1=O	inconclusive: 35.5 µM [inhibitor, single point]
CCCC1=C(C(=O)OCC)C2(C(=O)Nc3ccccc32)C(C#N)=C(N)O1 (centres undefined)	inconclusive: 3.55 µM [inhibitor, single point]
C=CCn1c(O)c(C(C)=NC(C)c2ccccc2)c(=O)[nH]c1=O (centres undefined)	inactive
S=C1NCCN1	inactive
CCCCOP(=O)(OCCCC)C(Nc1ccc(C(=O)OCC)cc1)c1ccncc1 (centres undefined)	inconclusive: 35.5 µM [inhibitor, single point]
CCOP(=O)(Nc1ccc2c(c1)C(=NNC(N)=S)c1ccccc1-2)OCC	inconclusive: 17.8 µM [inhibitor, partial curve, poor fit]
Cc1nc2ccsc2c(=O)n1-c1ccccc1Cl	inconclusive: 5.62 µM [inhibitor, single point]
O=[N+]([O-])c1ccc(-c2ccccc2)c([As](=O)(O)O)c1	inconclusive: 0.112 µM [inhibitor, full curve, poor fit]
O=C1NC(=O)N(c2ccccc2)C(=O)/C1=C/c1coc2ccc(O)cc2c1=O	inconclusive: 35.5 µM [inhibitor, single point]
NC(=Nc1ccccc1)NN=Cc1c[nH]c2ccccc12	inconclusive: 14.1 µM [inhibitor, partial curve, poor fit]
COc1ccccc1N=c1scc(-c2ccc(S(=O)(=O)N3CCCC3)cc2)n1C	inconclusive: 1.58 µM [inhibitor, partial curve, poor fit]
